Reference: PubChem BioAssay (NCI)
More than one record can exist for a structure, and the calls need not agree.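 The test compound was applied at a single concentration to cells in 96-well plates for 48 hours, and percent growth was recorded.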 A number of entries come with more than one value. The list is limited to them. Rule for the calls: active = growth percent below 10; inactive = the rest. There may be further records. This drug was run again and again over the years, at its own concentration, as given; each value is one run. Counts like (3×) give the number of equal values in this list.

How the values were obtained:
[1] = system: COLO 205 colon; test: NCI-60 one-dose screen, 48 h (100 = growth as untreated, 0 = no growth, -100 = all killed); conditions: 25 µM
[2] = system: SF-295 CNS; test: as above; conditions: 0.25 µM

For COc1cccc2c1C(=O)c1c(O)c3c(c(O)c1C2=O)C[C@@](O)(C(=O)CO)C[C@@H]3OC1CC(N)C(O)C(C)O1 (stereo not given in full), the growth ([1]; runs of 1998) was “active: -79.4, -88.6 (2×), -96.2, -65.1, -54.6, -90.5, -52.8, -84.4, -81, -87.8, -96.6, -86.3, -72.8, -76.2, -40.7, -73.8, -49.9, -3.45, -46.1, -53.1, -45.2, -50.9, -79.8, -76.6, -57.8%”, the growth ([1]; runs of 1999) was “active: -80.7, -61.8, -82.6, -62.6, -84.9, 2.29, -70.6, 3.06, -53.9, 1.76, 2.67, 3.61% and inactive: 12.9%” and the growth ([1]; runs of 2000) was “active: -100% (3×), 3.65%”. The growth ([2]; runs of 2006) was “inactive: 17.8%, 12.4%”, the growth ([2]; runs of 2007) was “inactive: 13.5, 14.3, 22, 17, 15.7, 15.4, 20.7, 28.7, 21.1, 25.9, 42.6, 25.1, 34.4, 23, 38.4, 17.1, 27.5, 25.8, 22.5, 32.3, 28, 35.4, 17.7, 67.6, 21.4, 22.8, 34.8% and active: -5.95, -6.31, -5.28, 0.876, 0.789, 8.21, 2, -5.62, 7.53, -15.1, -6.02, -5.78, -10.7, 9.64, -30, -7.42%” and the growth ([2]; runs of 2008) was “inactive: 39.3 (2×), 11.9, 37.9, 29.3 (2×), 35.3, 29.8, 36.1, 38.9, 20.7, 29.1, 32.8, 35.7, 24.3, 22.3 (2×), 20.5, 19.7, 20.4, 15.4, 31, 107, 22.8, 20.9, 18.5, 12.3, 23.5, 29, 11, 16.5, 11.4, 48, 30.5, 37.2, 43.8, 46.7, 22.7, 19.2, 27.5, 28, 26.4, 26.7% and active: -44.2, -16.8, -6.05, -22.7, 9.69, 8.24, -8.73%”. The growth ([2]; runs of 2009) was “inactive: 20.9, 24.4, 32.7, 36, 24.8, 30.2, 30 (2×), 26.9, 24 (2×), 27 (2×), 25.6, 46.1, 33.1, 23.2, 27.6, 22.5, 20.7, 23.5, 28.3 (3×), 20.2, 19.9, 13.4, 34, 13.5, 29, 28.8, 36.8, 13.8, 34.9, 41.7, 27.8, 31.3, 35.9, 25.4, 22.6, 13.1, 16.6, 32.3, 55.6, 30.7, 13.2, 36.4, 25.5, 31.1, 37.3, 34.4% and active: 4.01, 9.5, -7.62, 2.17, -27.6, -42.1, -4.22, 7.84, -5.8, 3.39, -12.2, 9.04, 2.06, 6.6, -0.221%”, the growth ([2]; runs of 2010) was “inactive: 17.4, 33.2, 20.7, 25.9, 29.1, 27.4, 26, 21.3, 34.5, 14.7, 26.4, 43.1, 40.9, 50.2, 11.9, 29.7, 20.5 (2×), 16.8, 15.8, 34.1, 22.5, 22.6, 20.8, 17.7, 13, 23.2, 11.8, 18.8 (2×), 32.2, 18.4, 26.7, 15.1, 14.1 (2×), 17.8, 19.9, 17.9% and active: 8.76, 5.49, -10.4, 9.75, 9.07, 9.2, 7.36, -7.36, 7.48, 0.547, -40.4, 6.39, 5.93%” and the growth ([2]; runs of 2011) was “inactive: 20.7, 31.3, 28.7 (2×), 28.8, 35.4, 34.5, 30.7, 20.9 (2×), 23.6, 32.3, 34.9, 18.7, 30.5 (2×), 30.4, 32.7, 31.1 (2×), 36.1, 35.6, 41.2, 39.9, 31.7, 40.4, 41.8, 33.4 (2×), 32.6, 33.3, 14.8, 21.6 (2×), 26.8, 21.9, 17.5, 25.7 (2×), 27.3, 27.8, 27.5, 25.4, 27.7, 19.9, 23.9, 26.7, 36.5, 40.8, 40.1, 33.2, 39.8, 26.3, 26% and active: 8.47%”. For the same molecule, the growth ([2]; runs of 2012) was “inactive: 23.6, 15.6, 17.6, 28.1, 32.6, 23.4, 32.3, 30.8, 23.2, 29, 19.4, 31.7, 13.1, 18.4, 18.5, 17.2, 12.2, 21.2, 25.4, 27.4, 32.8, 27.5, 20, 41.7, 25.1, 31.9, 13 (2×), 25.7, 27, 17, 33.2, 15.8, 41.4, 32.7, 12.9, 35.8, 32.9, 15.5, 20.4% and active: 3.08, -1.49, -10.8, 9.59, -0.19, -8.24, 3.78, -28.3, -30, 9.94, -52.3, -6.65, 6.35, -31.5, -2.13, 4.29, 9.28, -25.3%”, the growth ([2]; runs of 2013) was “inactive: 10.5, 12.3, 16.9, 15.8, 28.9, 10.6, 19.4, 28.7 (2×), 29.1 (2×), 30.7, 26.8 (2×), 35.8 (2×), 33.9 (2×), 30.9, 29.6, 25.9, 37.2, 31.5, 36, 36.1 (2×), 45.1, 15.5, 34.4, 38.5, 39.9, 33.4, 39.6, 38.9, 24.8, 35, 36.3, 38.3, 32.9, 36.7, 45.3, 51.5, 42.1, 39.1, 46, 43.3, 39, 41.5, 43.9, 50.2, 53.4, 40.1, 43, 44.8, 37.3, 52.3, 39.4, 31, 40.3, 41.6, 50.3, 28.3, 24.3, 25.4, 30.2, 29% and active: 0.505, 5.61, 3.66, -15.5, -4.38, 3.5%” and the growth ([2]; runs of 2014) was “inactive: 31.9, 27.9, 20.7, 23.9 (2×), 14.2, 29.1 (2×), 25.8, 36.4 (2×), 37.1, 26.3, 50.4, 24.8 (2×), 25 (3×), 32.3, 34 (2×), 39.9, 51.1, 30.9, 21.6 (2×), 31.1, 34.2, 26.9, 24.9, 19.9 (2×), 28.3, 35.3, 30.5 (2×), 27.4, 26.5, 30.3, 28.9, 23.4, 27.2, 30, 37.6, 21.2, 28.1, 27.8, 34.1, 30.2, 18.1, 18.5, 18.8, 22.8, 42.3, 31.3, 19.4, 23, 14, 28.2, 31.7, 33.9, 22.6, 29.3, 22.5, 20.5, 29.8, 25.5, 36.1, 21.3, 18, 26.4, 26.7%”. For the same molecule, the growth ([2]; runs of 2015) was “inactive: 22.5 (2×), 29.6, 37.7, 16.5 (2×), 15.5, 20 (2×), 23.3, 26.1, 22.4 (2×), 30.5, 20.7, 25.9 (2×), 32.5, 25.4 (2×), 21.6, 17.1 (3×), 10.3, 14.4, 20.2, 27.6 (2×), 35.8, 25.7 (2×), 26.3 (3×), 23, 25.8, 20.5 (2×), 27.1, 17.8, 17.5, 16.3, 17.2, 16.1, 23.9, 38.4, 20.9, 28.8, 23.7, 18.4 (2×), 21.4, 21.3, 19.4, 14, 27, 51.7, 25, 27.3, 11.3, 15.8, 20.3, 17.6, 35, 37, 36.6, 37.4, 24.8, 27.8, 23.6, 22.3, 13.9, 16.6, 30.3, 33.3, 34.5, 24.4% and active: 5.29%”, the growth ([2]; runs of 2016) was “inactive: 19.6, 11.7, 16.2, 20.8, 33.4, 33.7 (4×), 35.6, 20.5, 25.4, 29.6, 26.9, 24, 33.8, 24.8, 34.6, 28.1 (2×), 16 (2×), 16.6, 13.2, 24.3, 25.8, 21.3 (2×), 22 (2×), 23.7, 22.8, 30.5 (2×), 27.3, 30.4, 31.5, 49.5, 33.1, 49.7, 30.7, 39.8, 37, 33.3, 36.5, 36.8 (2×), 29.8, 32.7, 29.7, 32.9, 32.5, 36.9, 27.6, 32.3, 49, 31.2, 35.4, 39.5, 40, 40.6, 43, 47.9, 44, 49.8, 46, 42.8 (2×), 50, 34.4, 38.1, 37.5, 40.4, 38.8, 42.2, 36, 41.3, 36.4, 34.1, 35.7% and active: 6.98%, 7.48%” and the growth ([2]; runs of 2017) was “inactive: 35, 35.9, 25.5 (3×), 27.5, 28.9 (2×), 31.7 (2×), 26.9 (2×), 29.1, 21.6, 33 (2×), 29.3, 30.8 (2×), 33.6, 30.2, 31, 23.3, 25.1, 26.3, 26.8, 28.3, 25, 31.8 (2×), 22.5, 31.3, 28.8, 32.6, 25.4 (2×), 37.4, 32.8, 35.4, 28.1, 33.1, 33.8, 36.9 (2×), 30, 27.3 (2×), 31.9, 27.7, 35.8, 26 (2×), 30.5, 41, 46.1, 22.7, 29.6, 24, 27.6 (4×), 32, 26.7, 35.1, 23.5, 30.6, 29.9, 39.4, 31.1, 18.6, 22.9, 29.8, 34.2, 28%”.
